# Test results published in PubChem BioAssay AID1468 (National Center for Advancing Translational Sciences (NCATS), 2008).
# Where “and” joins values, the source holds several entries; their conditions need not be identical. Identical values can stand only once. About 1,100 (0.39%) of roughly 280,000 compounds were called active. Inconclusive means that the source gave no clear call. Such entries were picked first, then a sample of the others. Calls come from the whole dose curve; as a rule, active = well fitted inhibition curve with a large enough effect; inconclusive = small, poorly fitted or top-dose-only effect, or effect the other way; inactive = flat fitted curve, though single readings scatter. A potency beside an inconclusive call is a rough fit, not a confirmed value.
# Biological target: Microtubule-associated protein tau (Homo sapiens) (UniProt P10636)
# Chain of UniProt P10636 (P10636 whole entry, looked up): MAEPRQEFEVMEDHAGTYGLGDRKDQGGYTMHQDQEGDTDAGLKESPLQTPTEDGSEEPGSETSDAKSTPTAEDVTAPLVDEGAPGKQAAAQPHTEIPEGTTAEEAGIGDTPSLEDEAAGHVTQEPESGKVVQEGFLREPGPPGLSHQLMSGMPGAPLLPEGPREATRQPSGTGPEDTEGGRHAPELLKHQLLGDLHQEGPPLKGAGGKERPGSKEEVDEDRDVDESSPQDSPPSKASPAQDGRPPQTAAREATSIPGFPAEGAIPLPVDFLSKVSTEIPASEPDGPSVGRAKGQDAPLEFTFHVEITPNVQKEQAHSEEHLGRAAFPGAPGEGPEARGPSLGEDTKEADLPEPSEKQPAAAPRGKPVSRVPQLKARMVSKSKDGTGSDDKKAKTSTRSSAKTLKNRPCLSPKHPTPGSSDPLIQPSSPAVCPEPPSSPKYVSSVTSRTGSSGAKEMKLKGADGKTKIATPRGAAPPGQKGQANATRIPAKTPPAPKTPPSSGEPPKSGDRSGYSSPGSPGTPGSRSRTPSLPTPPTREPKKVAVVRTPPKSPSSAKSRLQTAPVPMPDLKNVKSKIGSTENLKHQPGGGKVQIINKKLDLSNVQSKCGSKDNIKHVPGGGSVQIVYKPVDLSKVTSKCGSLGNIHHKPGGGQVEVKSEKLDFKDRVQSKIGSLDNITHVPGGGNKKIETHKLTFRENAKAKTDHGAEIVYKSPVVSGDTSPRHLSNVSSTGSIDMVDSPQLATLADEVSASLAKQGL
# Experiment: qHTS for Inhibitors of Tau Fibril Formation, Fluorescence Polarization; note: nearly all actives have a fitted effect of over 55% in size
# Settings: K18 P301L tau heparin fibrillization, Alexa594 FP, 6 h; series mostly up to 57.7 µM
# How it was run: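 Human tau K18 […] P301L fragment, 15 uM unlabeled plus 0.24 uM Alexa 594-labeled tau (final), with compound and 20 uM heparin in 100 mM sodium acetate pH 7; 6 hr at 37 C, then Alexa 594 FP read.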
# Potency is the fitted concentration of half-maximal effect; tags give direction and shape of the fitted curve.
row,Compound,Potency
1,O=C(NCCN1CCCCC1)c1c(O)c2ccccc2[nH]c1=O,"inconclusive: 28.2 µM [inhibitor, single point]"
2,COC(=O)c1cc2sccc2n1CC(=O)Nc1ccc(C)cc1C,inactive
3,Cc1ccc(-c2nc(NC(=O)CSc3ccc4ccccc4n3)ns2)cc1,"inconclusive: 7.94 µM [inhibitor, partial curve] and inconclusive: 22.4 µM [inhibitor, single point]"
4,CCOc1ccccc1C(=O)NC1(C(F)(F)F)C(=O)Nc2c1c(=O)[nH]c(=O)n2-c1ccccc1 (configuration not stated),"inconclusive: 4.47 µM [inhibitor, full curve, poor fit]"
5,CC(C)C[C@H](N)c1nnc(S(=O)(=O)Cc2ccc(F)cc2)o1,"inconclusive: 25.1 µM [inhibitor, single point]"
6,Cn1ccc2cc(NC(=O)Nc3cccnc3)ccc21,"inconclusive: 1.41 µM [activator, partial curve]"
7,CCc1ccc(NC(=O)C2=C(C)C(=O)OC23CCCCC3)cc1,inactive
8,COc1ccc(C(CC(=O)c2ccc(O)cc2)S(=O)(=O)c2ccc(C)cc2)cc1 (configuration not stated),"inconclusive: 5.62 µM [inhibitor, full curve, poor fit]"
9,COc1ccc(-c2nnc3sc(CCN4C(=O)c5ccccc5C4=O)nn23)cc1,inactive
10,CC(=O)c1cccc(NC(=O)Cc2ccc(NC(=O)N3CCCCc4ccccc43)cc2)c1,inactive
11,CCOC(=O)c1cc(-c2ccccc2)n(CCC(=O)NCCc2cccc(C)c2)c1C,"inconclusive: 15.8 µM [activator, single point]"
12,COc1ccc(S(=O)(=O)NCCc2sc3nc(-c4ccc(C)cc4)nn3c2C)cc1C,inactive
13,CCOC(=O)CC1=NN(c2ccccc2)C(=O)/C1=C\c1ccc(N(C)C)cc1,inactive
14,CCOC(=O)c1c(-c2ccc(OC)c(OC)c2)csc1NC(=O)c1ccc(C)cc1,"inconclusive: 25.1 µM [inhibitor, single point]"
15,O=C(NCc1ccc(F)cc1)c1cc2cccc3c2n1CCS3,"inconclusive: 20 µM [inhibitor, single point]"
16,CC(=O)[C@]1(O)Cc2c(O)c3c(c(O)c2[C@@H](O[C@H]2C[C@H](N)[C@H](O)[C@H](C)O2)C1)C(=O)c1ccccc1C3=O,"inconclusive: 12.6 µM [inhibitor, partial curve, poor fit]"
17,Cc1ccc(NC(=O)CN2C(=O)C(c3ccc(C(C)(C)C)cc3)=NC2(C)C)cc1,"inconclusive: 39.8 µM [inhibitor, single point]"
18,CCOc1cc(/C=N/Nc2ccc(C(=O)O)cc2)ccc1OC(=O)c1ccccc1C,"inconclusive: 2.24 µM [activator, single point]"
19,CCN1CCN(Cc2ccc(NC(=O)c3cc(NC(=O)C4=NN(c5ccccc5)C(=O)C4)cc(OC)c3)cc2C(F)(F)F)CC1,"inconclusive: 8.91 µM [activator, full curve]"
20,O=C(/C=C/c1cccc([N+](=O)[O-])c1)NCCSCc1ccc(Cl)cc1,inactive
21,CCCOC(=O)c1ccc(Oc2c(-c3ccc(OC)cc3O)n[nH]c2C)cc1,"inconclusive: 39.8 µM [inhibitor, single point]"

row,Compound,Potency
1,Cc1cc(C)cc(-n2c(SCC(=O)Nc3cccc(F)c3)nc3c([nH]c4ccccc43)c2=O)c1,"inconclusive: 4.47 µM [inhibitor, single point]"
2,Cc1cccc(C(=O)Nc2ccccc2-c2nnn(CC(=O)Nc3ccc4c(c3)OCCO4)n2)c1,"inconclusive: 6.31 µM [inhibitor, full curve]"
3,COC(=O)CC1Oc2ccc(F)cc2-n2cc(-c3ccc(C)cc3)nc21 (configuration not stated),"inconclusive: 11.2 µM [inhibitor, single point]"
4,O=C(OCn1ncc(Br)c(Br)c1=O)c1ccc(F)cc1,"inconclusive: 12.6 µM [inhibitor, partial curve]"
5,OCc1nc2ccccc2n1CC(O)Cn1ccc2ccccc21 (configuration not stated),"inconclusive: 44.7 µM [activator, single point]"
6,Cc1c(C)n(CC(O)CN2C(=O)c3ccccc3S2(=O)=O)c2ccccc12 (configuration not stated),"inconclusive: 31.6 µM [activator, single point]"
7,Cc1noc(C)c1C(=O)NC(C)c1ccc(Cl)cc1Cl (configuration not stated),inactive
8,COc1ccc(CCNC(=O)CCn2c(SCC#N)nc3ccccc3c2=O)cc1OC,inactive
9,O=C(NN=c1c(=O)c2ccccc2c1=O)c1ccccc1,"inconclusive: 5.62 µM [inhibitor, partial curve]"
10,CC(C)CN(Cc1cc(=O)oc2cc(-c3ccccc3)c(O)cc12)CC(C)C,"inconclusive: 25.1 µM [inhibitor, partial curve, poor fit]"
11,C=CCn1c(C)cc(-c2csc(N)n2)c1C,"inconclusive: 14.1 µM [inhibitor, partial curve]"
12,CCCn1cc(S(=O)(=O)CC(=O)N2CCc3ccccc32)c2ccccc21,inactive
13,O=C(O)C(=O)/C(=C\c1ccccc1)c1ccc2ccccc2n1,inactive
14,CSc1ccc([C@H]2CN3CCC[C@H]3c3ccccc32)cc1,"inconclusive: 39.8 µM [inhibitor, single point]"
15,Cc1oc(-c2ccc(Cl)cc2)nc1CS(=O)CC(=O)NCCc1ccccc1 (configuration not stated),"inconclusive: 3.98 µM [inhibitor, single point]"
16,COc1ccccc1CNc1nc(-c2ccco2)nn1S(C)(=O)=O,inactive
17,Cc1ccc(S(=O)(=O)c2nc(-c3cccs3)oc2SCC(=O)Nc2cc(C)cc(C)c2)cc1,"inconclusive: 3.55 µM [inhibitor, full curve]"
18,Nc1nc(-c2ccccn2)nc(N)c1Cc1ccc(Cl)cc1Cl,"inconclusive: 44.7 µM [inhibitor, single point]"
19,COc1cccc(C(=O)NN2c3ccccc3CCc3ccccc32)c1,inactive
20,CC(=O)N1N=C(c2ccccc2)OC1c1ccc([N+](=O)[O-])s1 (configuration not stated),"inconclusive: 44.7 µM [inhibitor, single point]"
21,CCN(CC)c1ccc(SS(=O)(=O)O)cc1,"inconclusive: 5.01 µM [inhibitor, full curve]"
